Laboratory results published in PMC11995724, “Antibiotic target discovery by integrated phenotypic and activity-based profiling of electrophilic fragments” (Cell chemical biology, 2025).
Hit rate of the full screen: of about 3,200 compounds, about 75 (2%) showed an effect of 50% or more. The list shows a part of the results.

system: T1, S. aureus MSSA476; design: species or system S. aureus MSSA476 (TSB) or V. cholerae SAD30 (LB); 384-well bacterial growth screen at 25 uM, OD600 relative to DMSO control; details: relative growth, OD600, TSB; 25 µM; inhibitor
T1 construct: MSSA476

Row | SMILES | % of control remaining
1 | CCCCNC(=O)C(C#N)=Cc1cc(C)cc(C)c1 [9-C03, N-butyl-2-cyano-3-(3,5-dimethylphenyl)prop-2-enamide] | 123.146%
2 | COc1ccc(C=C(C#N)C(=O)Nc2ccc(Cl)cc2Cl)cc1 [8-K03, 2-cyano-N-(2,4-dichlorophenyl)-3-(4-methoxyphenyl)prop-2-enamide] | 117.51%
3 | C=CC(=O)N(C)[C@H]1CS(=O)(=O)C[C@@H]1O (racemic) [3-C15, rac-N-[(3R,4R)-4-hydroxy-1,1-dioxo-1lambda6-thiolan-3-yl]-N-methylprop-2-enamide] | 103.439%
4 | O=C1C=CC(=O)N1c1cccc(O)c1 [10-O07, 1-(3-hydroxyphenyl)-2,5-dihydro-1H-pyrrole-2,5-dione] | 125.313%
5 | O=C1C=CC(=O)N1c1ccccc1Sc1ccc(Cl)cc1 [10-A03, 1-{2-[(4-chlorophenyl)sulfanyl]phenyl}-2,5-dihydro-1H-pyrrole-2,5-dione] | 10.9375%
6 | O=C(CCl)NCc1ccccc1OC(F)(F)F [4-L21, 2-chloro-N-{[2-(trifluoromethoxy)phenyl]methyl}acetamide] | 121.582%
7 | O=C(CCl)N1N=C(c2ccc3ccccc3c2)CC1c1ccccc1 (stereo not drawn) [4-K22, 2-chloro-1-[3-(naphthalen-2-yl)-5-phenyl-4,5-dihydro-1H-pyrazol-1-yl]ethan-1-one] | 117.008%
8 | O=C(CCl)Nc1cc(C2CCCC2)nn1-c1ccccc1 [4-J03, 2-chloro-N-(3-cyclopentyl-1-phenyl-1H-pyrazol-5-yl)acetamide] | 103.668%
9 | O=C(CCl)NC1CCC2(CCC1(F)F)OCCO2 (stereo not drawn) [5-G09, 2-chloro-N-{9,9-difluoro-1,4-dioxaspiro[4.6]undecan-8-yl}acetamide] | 110.383%
10 | CC(Cl)C(=O)NC(=O)NCc1ccccc1 (stereo not drawn) [6-P06, 1-benzyl-3-(2-chloropropanoyl)urea] | 88.439%
11 | CN(C)c1ccc(C=C(C#N)C(=O)Nc2ccccc2C(=O)O)cc1 [9-I08, 2-{2-cyano-3-[4-(dimethylamino)phenyl]prop-2-enamido}benzoic acid] | 63.8202%
12 | N#CC(=Cc1c(Cl)cccc1Cl)C(=O)NCc1ccco1 [9-K06, 2-cyano-3-(2,6-dichlorophenyl)-N-[(furan-2-yl)methyl]prop-2-enamide] | 96.4794%
13 | CC(C)NC(=O)C(C#N)=Cc1ccc(OC(C)C)cc1 [8-G12, 2-cyano-N-(propan-2-yl)-3-[4-(propan-2-yloxy)phenyl]prop-2-enamide] | 120.83%
14 | CCCCNC(=O)C(C#N)=Cc1c[nH]nn1 [9-L04, N-butyl-2-cyano-3-(1H-1,2,3-triazol-4-yl)prop-2-enamide] | 89.588%
15 | CC(Cl)C(=O)N1CCN(Cc2ccc3ccccc3n2)CC1 (stereo not drawn) [7-A15, 2-chloro-1-{4-[(quinolin-2-yl)methyl]piperazin-1-yl}propan-1-one] | 107.378%
16 | O=C(CCl)NC1CN(c2ccc(C(F)(F)F)cc2)C1 [7-J06, 2-chloro-N-{1-[4-(trifluoromethyl)phenyl]azetidin-3-yl}acetamide] | 97.9592%
17 | CCn1cc(N2C(=O)C=CC2=O)cn1 [10-I21, 1-(1-ethyl-1H-pyrazol-4-yl)-2,5-dihydro-1H-pyrrole-2,5-dione] | 128.438%
18 | C=CC(=O)NC1(c2nc(C3CC3)cc(=O)[nH]2)CCCCC1 [3-H13, N-[1-(4-cyclopropyl-6-oxo-1,6-dihydropyrimidin-2-yl)cyclohexyl]prop-2-enamide] | 104.484%
19 | C=CC(=O)N(Cc1cccc2cccnc12)C1CCCN(CC)C1 (stereo not drawn) [1-H11, N-(1-ethylpiperidin-3-yl)-N-[(quinolin-8-yl)methyl]prop-2-enamide] | 97.7582%
20 | Cl.O=C(CCl)NC1CCN(Cc2ccccc2)C1 (stereo not drawn) [6-G18, N-(1-benzylpyrrolidin-3-yl)-2-chloroacetamide hydrochloride] | 104.146%
21 | CCN(Cc1cccc(C)c1)C(=O)CCl [5-J16, 2-chloro-N-ethyl-N-[(3-methylphenyl)methyl]acetamide] | 78.6885%
22 | C#CCN1C(=O)C=CC1=O [10-F09, 1-(prop-2-yn-1-yl)-2,5-dihydro-1H-pyrrole-2,5-dione] | 118.438%
23 | CCN1C(=O)C(=Cc2ccc(-c3ccc(F)cc3)o2)C(C)=C(C#N)C1=O [9-P09, 1-ethyl-5-{[5-(4-fluorophenyl)furan-2-yl]methylidene}-4-methyl-2,6-dioxo-1,2,5,6-tetrahydropyridine-3-carbonitrile] | 83.5955%

Row | SMILES | % of control remaining
24 | C=CC(=O)N1CCC(C(=O)N2CCCC(CC(N)=O)CC2)CC1 (stereo not drawn) [2-F12, 2-{1-[1-(prop-2-enoyl)piperidine-4-carbonyl]azepan-4-yl}acetamide] | 129.852%
25 | C=CC(=O)NC1CC2(CCC(C(=O)O)CC2)C1 (stereo not drawn) [2-I16, 2-(prop-2-enamido)spiro[3.5]nonane-7-carboxylic acid] | 113.838%
26 | COc1cc(C=C(C#N)C(=O)NC2CCCCC2C)cc(OC)c1O (stereo not drawn) [9-H21, 2-cyano-3-(4-hydroxy-3,5-dimethoxyphenyl)-N-(2-methylcyclohexyl)prop-2-enamide] | 104.27%
27 | N#CC(=Cc1cc(F)ccc1F)C(=O)Nc1ccc(F)cc1F [8-C10, 2-cyano-N-(2,4-difluorophenyl)-3-(2,5-difluorophenyl)prop-2-enamide] | 122.49%
28 | C=CC(=O)NCc1ccc(C(=O)N2CCN(c3nc(C)n[nH]3)CC2)cc1 [2-F22, N-({4-[4-(3-methyl-1H-1,2,4-triazol-5-yl)piperazine-1-carbonyl]phenyl}methyl)prop-2-enamide] | 99.2167%
29 | CC(Cl)C(=O)NCCc1ccc(F)cc1 (stereo not drawn) [6-F06, 2-chloro-N-[2-(4-fluorophenyl)ethyl]propanamide] | 98.6829%
30 | COc1ccc(C=C(C#N)C(=O)NCc2ccccc2)cc1O [8-C09, N-benzyl-2-cyano-3-(3-hydroxy-4-methoxyphenyl)prop-2-enamide] | 107.552%
31 | C=CC(=O)NCCC(=O)N1CCSC(C)CC1 (stereo not drawn) [2-K08, N-[3-(7-methyl-1,4-thiazepan-4-yl)-3-oxopropyl]prop-2-enamide] | 90.8616%
32 | C=C(Cl)CN(C(=O)CCl)C1CCc2ccccc21 (stereo not drawn) [7-B18, 2-chloro-N-(2-chloroprop-2-en-1-yl)-N-(2,3-dihydro-1H-inden-1-yl)acetamide] | 98.5871%
33 | COc1ccc(NC(=O)C(C#N)=Cc2cccc(O)c2)cc1OC [8-F09, 2-cyano-N-(3,4-dimethoxyphenyl)-3-(3-hydroxyphenyl)prop-2-enamide] | 113.527%
34 | C=CC(=O)N1CCc2[nH]cnc2C1c1ccnn1C (stereo not drawn) [3-A07, 1-[4-(1-methyl-1H-pyrazol-5-yl)-1H,4H,5H,6H,7H-imidazo[4,5-c]pyridin-5-yl]prop-2-en-1-one] | 86.7218%
35 | N#CC(=Cc1ccc(Cl)c([N+](=O)[O-])c1)C(=O)NCc1ccco1 [9-E15, 3-(4-chloro-3-nitrophenyl)-2-cyano-N-[(furan-2-yl)methyl]prop-2-enamide] | 82.6966%
36 | C=CC(=O)Nc1cn(C)nc1OC(C)C [1-F14, N-[1-methyl-3-(propan-2-yloxy)-1H-pyrazol-4-yl]prop-2-enamide] | 84.7473%
37 | Cc1cc(C(=O)CCl)c(C)n1-c1ccc(S(N)(=O)=O)cc1 [10-N14, 4-[3-(2-chloroacetyl)-2,5-dimethyl-1H-pyrrol-1-yl]benzene-1-sulfonamide] | 121.875%
38 | C=CC(=O)NC(Cc1ccccc1)c1ncco1 (stereo not drawn) [1-B07, N-[1-(1,3-oxazol-2-yl)-2-phenylethyl]prop-2-enamide] | 101.978%
39 | CC(Cl)C(=O)Nc1ccc([N+](=O)[O-])cc1Cl (stereo not drawn) [4-J17, 2-chloro-N-(2-chloro-4-nitrophenyl)propanamide] | 105.955%
40 | N#Cc1ccc(C(=O)CCl)cc1 [10-F10, 4-(2-chloroacetyl)benzonitrile] | 52.5%
41 | CC(Cl)C(=O)NC(C)C(c1ccccc1Cl)n1cccn1 (stereo not drawn) [6-P09, 2-chloro-N-[1-(2-chlorophenyl)-1-(1H-pyrazol-1-yl)propan-2-yl]propanamide] | 77.1707%
42 | CC(Cl)C(=O)c1ccc(F)c(F)c1 (stereo not drawn) [10-A17, 2-chloro-1-(3,4-difluorophenyl)propan-1-one] | 134.688%
43 | COc1ccc(NC(=O)N2CCSSCC2)cc1 [10-H21, N-(4-methoxyphenyl)-1,2,5-dithiazepane-5-carboxamide] | 101.563%
44 | O=C(CCl)Nc1ccc(C(F)(F)F)cc1[N+](=O)[O-] [4-N08, 2-chloro-N-[2-nitro-4-(trifluoromethyl)phenyl]acetamide] | 142.163%
45 | O=C(CCl)NC1Cc2ccccc2N(C(=O)C(F)(F)F)C1 (stereo not drawn) [7-L16, 2-chloro-N-[1-(2,2,2-trifluoroacetyl)-1,2,3,4-tetrahydroquinolin-3-yl]acetamide] | 85.7143%
